Reference: PubChem BioAssay (NCI)
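Five concentrations, 48 hours, 96-well plates. The concentration for 50% growth inhibition is given as GI50. The concentration for full growth arrest is given as TGI.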

System: NCI-H322M lung
Test: inhibition of tumour cell growth, NCI panel, 48 h

| Structure (SMILES) | TGI [µM] | GI50 [µM] |
| --- | --- | --- |
| Cc1ccccc1N=Nc1c(-c2ccccc2)nn(C(=O)CC(=O)Nc2cccc(Cl)c2)c1-c1ccccc1 | > 31.6 |  |
| COc1cc2c3c(c1OC)C(=O)C=C3N(S(=O)(=O)c1ccc(C)cc1)CC2 | > 100 |  |
| O=C1/C(=C/c2ccccc2)CCCc2ccccc21 | 45.4 |  |
| COC(=O)CNC(=O)CCC(C)[C@H]1CCC2C3C(C[C@H](OC(C)=O)[C@@]21C)[C@@]1(C)CCC2(C[C@H]1C[C@H]3OC(C)=O)OOC1(CCCCC1)OO2 (stereo not given in full) | 54.2 |  |
| COc1ccc2c(c1)[n+](=O)c(C(=O)CC(=O)C(=O)Nc1cccc(C)c1C)c(C)n2[O-] | > 100 |  |
| COc1cc2c(c(OC)c1OC)-c1ccc(SC)c(=O)cc1C(CC(=O)Oc1cccc(F)c1)C2 (stereo not given) | > 55.2 |  |
| O=c1[nH]c(=O)n([C@@H]2O[C@H](CO)[C@@H](O)[C@@H]2F)cc1I | > 100 |  |
| C=Cc1c(C)c2cc3[nH]c(cc4nc(cc5nc(cc1[nH]2)C(C)=C5CCC(=O)N(CC)CC)C(CCC(=O)N(CC)CC)=C4C)c(C)c3C=C | > 100 |  |
| C[C@H]1O[C@@H](C(C)(C)C)OC(=O)[C@@H]1C(OC(=O)c1ccccc1)c1cccc2ccccc12 (stereo not given in full) | > 100 |  |
| CCN(CC)c1nc(NC2CCCCC2)c2nc(N(CC)CC)nc(NC3CCCCC3)c2n1 | > 100 |  |
| OC12c3ccccc3C1CCCCCC21OCCCO1 (stereo not given) | > 100 |  |
| Cn1cc(C2=C(c3ccccc3C(F)(F)F)C(=O)NC2=O)c2ccccc21 | > 25 | 10.8 |
| COc1ccc(C2C3=C(COC3=O)OC(C)(C)Oc3cc4c(cc32)OCO4)cc1OC (stereo not given) | > 100 |  |
| O=C1C(Cl)=C(NCCF)C(=O)c2ncccc21 | 2.89 |  |
| CCn1c(CSc2nc(-c3ccccc3)c(-c3ccccc3)[nH]2)n[nH]c1=S | > 100 |  |
| CC(=O)NC1=C(N)C(=O)c2ccccc2C1=O | > 100 |  |
| O/N=C\C(=Nc1ccc(Cc2ccc(N=C(/C=N\O)NO)cc2)cc1)NO | > 100 |  |
| C/C(O)=C(\N=O)C(=O)NCc1ccccc1 | > 100 |  |
| O=c1[nH]nc(-c2ccc(F)cc2)cc1-c1ccccc1 | > 100 |  |
| CC[C@@H](O)C[C@H]1CCC[C@@]2(C[C@@H]3OC(=O)/C=C/[C@@](C)(O)[C@@H](O)[C@H](C)[C@@H](O)[C@H](OC4CCC(N(C)C)C(C)O4)[C@@H](O)[C@](C)(O)CCCCC/C=C/[C@@H]4CC(C)(C)O[C@@]4(O)C[C@H](O2)[C@H]3C)O1 (stereo not given in full) | 23.6 |  |
| C=CC[C@]1(C2=NC(C)(C)CO2)c2ccccc2-c2ccccc2[C@H]1C(C)=O | 41.9 |  |
| NC(=S)N/N=C1/CN(c2ccc(Cl)c(Cl)c2)CC(=O)C1c1nc2ccccc2s1 (stereo not given) | > 100 |  |
| C/C(O)=C(\C=NC(=S)c1ccncc1)C(=O)Nc1ccccc1C | > 100 |  |
| c1ccc(C2CC(c3ccc4ccccc4c3)=Nc3ccccc3S2)cc1 (stereo not given) | 47.9 |  |
| CCCCCCCCCC(=O)NC(Cc1ccc(O)cc1)C(=O)NCCCNCCCCNCCCNC(=O)[C@@H](N)CCCN=C(N)N (stereo not given in full) | > 100 |  |
| CCC(=O)Nc1ccc(NCC(=O)Nc2ccc(OC)cc2)cc1 | 49 |  |
| CC(=O)c1c(O)n(-c2ccc(C)cc2)c(=O)c2c(N)n[nH]c12 | > 100 |  |

| Structure (SMILES) | TGI [µM] | GI50 [µM] |
| --- | --- | --- |
| CCOC1CCN(C(=O)c2ccccc2)O1 (stereo not given) | > 10 |  |
| O=P1(Cc2ccccc2)c2ccccc2-c2ccccc21 | 75 |  |
| CC1(C)C(=O)C(=Cc2ccco2)C1=O | > 100 |  |
| O=C1C=C(Nc2ccc(S(=O)(=O)Nc3ncccn3)cc2)c2ccccc2C1=O | 47.7 |  |
| COc1ccccc1C1C(C#N)=C(N)Oc2cc(O)ccc21 (stereo not given) | > 100 | 47.7 |
| N#Cc1c(-c2ccccc2)cc(Nc2ccc(Cl)cc2)n2c1nc1ccccc12 | 5.93 |  |
| O=C(C1OC1c1cccc([N+](=O)[O-])c1)C12CC3CC(CC(C3)C1)C2 (stereo not given) | 23.1 |  |
| CC(C)(C)c1nc(-c2cccc(NS(=O)(=O)c3c(F)cccc3F)c2F)c(-c2ccnc(N)n2)s1 | > 100 | 54.2 |
| CCC(C)(O)c1cn(-c2ccc(S(=O)(=O)O)cc2)nn1 (stereo not given) | > 100 |  |
| CC(C)=C[C@@H]1O[C@H](O)[C@@H]([C@H]2CC[C@@]3(C)[C@@H]4CC[C@H]5C(C)(C)C(=O)CC[C@@]56C[C@@]46CC[C@]23C)[C@@H]1O | 35.4 |  |
| Cc1c(C)c2c(c(C)c1OCC(=O)O)CC[C@@](C)(CCC[C@@H](C)CCC[C@@H](C)CCCC(C)C)O2 | 161 | 84.4 |
| COC(=O)[C@H](Cc1c[nH]c2ccccc12)NC(=O)c1ccccc1I | 52.3 |  |
| NC(CSC(c1ccccc1)(c1ccccc1)c1ccc(F)cc1)C(=O)O (stereo not given) | > 100 | 0.498 |
| CCCCCCCCCCOC(=O)c1cc[n+](C)cc1 | 32.8 |  |
| CCOc1ccc(C(C)=O)cc1NC(=O)c1cccc(-c2nnn(CC)n2)c1 | > 100 | 15.7 |
| [N-]=[N+]=Nc1ccc2c(c1)Sc1ccccc1N2CCCCN1CCN(C(=O)CCNC(=O)Cc2ccc(C(=O)c3ccccc3)cc2)CC1 | > 71 |  |
| COCOc1cc(OC)ccc1C/C(=N/O)C(=O)OC | > 100 |  |
| CCC(=O)C(C(=O)CC)c1c(OC(=O)c2ccccc2)ccc(O)c1C(=O)OC | > 100 |  |
| O=C(c1ccco1)N(C(=S)N1CCN(c2ccccn2)CC1)c1ccccc1 | > 100 |  |
| COc1ccc2c(c1)CCc1c(CO)c(COC(=O)NC(C)C)n(C)c1-2 | > 77.7 |  |
| COc1ccc(/C=C/C(=O)Oc2ccccc2OC)cc1 | > 100 |  |
| CCn1c(=N)sc2nc3ccccc3n2c1=O | > 100 |  |
| COc1ccc(-c2nsc3c2NC(=O)CC3c2cccc(Cl)c2)cc1 (stereo not given) | > 100 | 6.29 |
| COc1cc(NC(C)CCCNC(C)C)c2ncccc2c1OC (stereo not given) | > 100 | 37.3 |
| CC/C(Cc1ccccc1)=C(/c1ccc(O)cc1)c1ccc(OCCN2CCCC2)cc1 | 3.16 | 1.6 |
| CC(=O)NC1(C)C(C)C2CC1C(C)C2(C)C (stereo not given) | > 100 |  |
| CCc1nc2cc(/C=C/C(=O)NO)ccc2c(=O)n1CCc1ccc(OC)cc1 | 41.6 | 2.92 |

| Structure (SMILES) | TGI [µM] | GI50 [µM] |
| --- | --- | --- |
| Cc1nc(Sc2nc3ccc([N+](=O)[O-])cc3s2)sc1C | 19.8 | 5.87 |
| OC(COc1ccccc1)CN1CCCCC1 (stereo not given) | > 100 |  |
| COc1ccc(-c2n[nH]nc2-c2cc(OC)c3c(c2)OCO3)cc1 | > 100 | 0.0557 |
| Cc1cc(C)nc(NS(=O)(=O)c2ccc(NC(=O)c3cc([N+](=O)[O-])cc([N+](=O)[O-])c3)cc2)n1 | > 100 |  |
| CCCCN1C(=O)/C(=c2\sc3n(c2=O)C2C(NN=3)N(CC)C(=O)N2CC)c2ccccc21 (stereo not given) | > 100 | 1.64 |
| CC(=O)NC1C(OCc2ccccc2)OC(CO)C(O)C1OCC(=O)N[C@@H](C)C(=O)N[C@H](CCC(=O)NCCNc1ccc([N+](=O)[O-])c2[nH]c3ccccc3c(=O)c12)C(N)=O (stereo not given in full) | > 100 |  |
| C/C(O[Si](C(C)C)(C(C)C)C(C)C)=C(\C)C(=O)N(C)c1ccccc1Cl | > 100 |  |
| Nc1ccc(-c2ccc3ncc4ccc(=O)n(-c5cccc(C(F)(F)F)c5)c4c3c2)cn1 | 4.75 | < 0.01 |
| COc1cc(-c2nccc3cc4c(cc23)OCO4)cc(OC)c1OC | > 100 | 8.29 |
| O=C([CH-]C(=O)c1ccccc1)c1ccccc1.O=C([CH-]C(=O)c1ccccc1)c1ccccc1.O=C([CH-]C(=O)c1ccccc1)c1ccccc1.[Cl-].[Zr+4] | > 100 | 33.5 |
| C[n+]1ccccc1/C1=c2\cc/c([nH]2)=C(\c2cccc[n+]2C)C2=N/C(=C(/c3cccc[n+]3C)C3C=CC(N3)/C(c3cccc[n+]3C)=C3/C=CC1=N3)C=C2 | > 100 |  |
| CC(=O)n1nc(-c2ccc3ccccc3c2)nc1C | > 100 |  |
| O=C(O)Cn1ccc2ccccc21 | > 100 | > 100 |
| CC[n+]1c(/C=C/c2ccc(N(CCCl)CCCl)cc2)ccc2cc(I)ccc21 | 5.67 |  |
| CC(CC[C@@]1(O)OC2C[C@H]3[C@@H]4CC[C@H]5CC(OC6OC(CO)C(OC7OC(CO)C(O)C(OC8OCC(O)C(O)C8O)C7OC7OC(CO)C(O)C(O)C7O)C(O)C6O)[C@H](O)CC5(C)[C@H]4CCC3(C)C2[C@@H]1C)COC1OC(CO)C(O)C(O)C1O (stereo not given in full) | 34 |  |
| COc1cc(-c2cc3ncccc3c3[nH]c(=O)c4cccnc4c23)cc(OC)c1OC | > 100 | 0.798 |
| C#CC(O)/C=C/C(O)CCCC(O)CC#CC(O)C#CCCCCC(O)/C=C/CCCC(O)/C=C/CCCCCCCCCCCCCC(O)C(O)C#CC(=O)O (stereo not given) | > 25 |  |
| Cc1ccc(O)c(NC2=C(Cl)C(=O)N(Cc3ccccc3)C2=O)c1 | > 100 | 97.1 |
| CC1=C(C(=O)Nc2ccccc2)C(c2cc(Cl)cc(Cl)c2)C(C(=O)Nc2ccccc2)=C(C)N1 | 26.6 |  |
| O=C(NC(=O)c1cn(CCN2CCN(C(=O)NCCCCCCNC(=O)N3CCN(CCn4cc(C(=O)NC(=O)OCc5ccccc5)c(=O)[nH]c4=O)CC3)CC2)c(=O)[nH]c1=O)OCc1ccccc1 | > 100 |  |
| CCOc1ccc(N=Cc2ccnc3ccccc23)cc1 | > 100 |  |
| COc1ccc(-c2nc(N)c(C#N)c3c2CCOc2c-3ccc3ccccc23)cc1 | > 100 | 29.9 |
| CNC(=S)/C(C#N)=C(\N)N1CCCC1 | > 100 |  |
| COc1cc(C2c3cc4c(cc3[C@@H](N(C)c3ccc(N(C)C)cc3)C3COC(=O)C23)OCO4)cc(OC)c1O (stereo not given in full) | > 100 |  |
| COc1cc(OC)c(OC)cc1/C=C/c1cc[n+](C)c2ccccc12 | > 100 |  |
| CCOC(=O)C1(C(=O)OCC)C=C(c2ccccc2)N(C2OC(COC(C)=O)C(OC(C)=O)C(OC(C)=O)C2OC(C)=O)C1=S (stereo not given) | > 100 |  |
